Results published in the supplement of paper PMC3334620.
The full ranking holds about 33,000 sequences; the median of “E-score (-0.5 to 0.5)” is about -0.054, and the highest 2% start at about 0.35. The list shows a part of the results.

These sequences were tested against T1, Stb5 (UniProt P38699) (assay: PBM E-score (8-mer binding enrichment) (E-score (-0.5 to 0.5)); higher = stronger / more preferred TF binding; most listed sequences are background and not binding sites). Conditions: protein concentration: 200 nM; construct: GST-full length.
T1 sequence: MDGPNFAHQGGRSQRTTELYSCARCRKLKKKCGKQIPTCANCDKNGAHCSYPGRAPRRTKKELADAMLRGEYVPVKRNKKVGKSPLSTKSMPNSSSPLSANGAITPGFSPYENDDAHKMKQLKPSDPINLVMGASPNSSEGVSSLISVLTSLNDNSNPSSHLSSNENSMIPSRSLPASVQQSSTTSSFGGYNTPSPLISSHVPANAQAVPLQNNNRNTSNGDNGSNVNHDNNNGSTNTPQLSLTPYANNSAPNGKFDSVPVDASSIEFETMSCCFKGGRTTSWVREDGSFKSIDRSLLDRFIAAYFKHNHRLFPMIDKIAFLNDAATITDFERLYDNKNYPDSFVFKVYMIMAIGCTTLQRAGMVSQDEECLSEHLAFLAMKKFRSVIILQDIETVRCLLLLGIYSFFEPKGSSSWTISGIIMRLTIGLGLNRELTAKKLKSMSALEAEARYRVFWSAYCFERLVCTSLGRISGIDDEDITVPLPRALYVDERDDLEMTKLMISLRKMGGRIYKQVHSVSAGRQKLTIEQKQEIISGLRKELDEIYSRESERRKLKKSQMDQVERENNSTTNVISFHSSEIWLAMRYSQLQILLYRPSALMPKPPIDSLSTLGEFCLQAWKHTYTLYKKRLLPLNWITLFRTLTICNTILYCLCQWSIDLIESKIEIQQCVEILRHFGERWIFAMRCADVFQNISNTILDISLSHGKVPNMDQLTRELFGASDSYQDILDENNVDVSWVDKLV
How it was run: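 Universal all-10-mer Agilent arrays, fresh or stripped once, were converted to double-stranded form by primer extension. GST-tagged yeast transcription factors from PURExpress in vitro transcription/translation, full-length or DNA-binding domain only, were applied at about 100-200 nM and detected with fluorescent anti-GST. After masliner normalisation, the Universal PBM Analysis Suite scored each ungapped eight-base word together with its reverse complement by E-score.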

| Sequence | PBM E-score |
| --- | --- |
| ACGGCCTG | 0.147 |
| GGAACGCC | 0.119 |
| AAAATCAA | -0.0562 |
| AGTTCGGA | 0.208 |
| TGTCTTAA | 0.00631 |
| ATCACTAC | -0.315 |
| ATTTGCAA | -0.15 |
| ACAGAGAT | -0.135 |
| CACGCACG | 0.0155 |
| ATTTTGCC | 0.0618 |
| ATTGGGTG | -0.0939 |
| TGCAGTAA | -0.112 |
| ACCGTGGG | 0.107 |
| CATCGTGG | -0.0422 |
| ACTAGGCA | 0.0431 |
| GTCCGGAA | 0.192 |
| AGGTCGCA | 0.0143 |
| GTTTCAAA | 0.0831 |
| AGGAGGGA | -0.215 |
| AGATAAAT | -0.0468 |
| GACACCAC | 0.0001 |
| AATGTAGC | -0.23 |

| Sequence | PBM E-score |
| --- | --- |
| ACATACTC | -0.212 |
| ACGGCAGC | 0.0597 |
| CGTAGTGA | -0.13 |
| TATCCTCA | -0.159 |
| AGGCAACT | -0.147 |
| AACGAAAT | 0.0462 |
| AAGGGACC | -0.00597 |
| ACGGTAAG | 0.102 |
| GCGGGTAC | 0.102 |
| CAACCGAA | -0.045 |
| ACAACACA | -0.294 |
| AGAATGGC | -0.129 |
| ACAGCCAT | -0.306 |
| AATGGGGG | -0.124 |
| AGTTCGAT | -0.239 |
| AAGAAAGC | -0.112 |
| AACTCCGT | 0.444 |
| CGGCTACC | 0.041 |
| AATGCGTC | -0.154 |
| CAGAGTAA | -0.179 |
| ACGGGAAG | -0.0191 |
| GTTCCTTA | -0.173 |

| Sequence | PBM E-score |
| --- | --- |
| CAGAGATA | -0.148 |
| CTGGCTCC | -0.188 |
| AGAGCCTC | -0.258 |
| TCATCGCA | -0.185 |
| ACTAGCCC | 0.15 |
| AGAGGCAG | -0.38 |
| AGCACGTG | -0.251 |
| AGGGAGTG | -0.196 |
| AATAGTGA | -0.197 |
| CCTCATAG | -0.261 |
| AACTGTAT | -0.0898 |
| GCTAGTAC | -0.109 |
| CCAGGAAG | -0.203 |
| TATAAATA | 0.15 |
| GGGTTTAC | 0.274 |
| ATACGCCG | 0.338 |
| ATACCTAA | -0.105 |
| AGCGAGTA | -0.13 |
| AGTGCCAA | -0.29 |
| GGATGGCC | -0.0663 |
| CTGAGACC | 0.0788 |
| ACTGGCAC | -0.123 |

| Sequence | PBM E-score |
| --- | --- |
| GATCTCAA | -0.0631 |
| AGAGCGAA | -0.0399 |
| GCTCATGA | -0.139 |
| GAGGGGTA | -0.0945 |
| CATTAGAC | -0.0617 |
| AAGAAATC | -0.136 |
| CGCAGGTC | -0.0205 |
| CCCCGTGA | 0.146 |
| GAGAATAA | -0.0168 |
| AAACTAGC | -0.0246 |
| GGATAAAC | 0.162 |
| AACGGGCG | 0.171 |
| AATACATA | -0.0377 |
| GGTTACAA | 0.0919 |
| AACCTGCA | -0.225 |
| AAAGCACA | -0.218 |
| TGCATCAA | -0.147 |
| GGCGCATA | 0.149 |
| ATATAAAG | -0.0862 |
| CATGAGAC | -0.0283 |
